Our source for the binding values is PMC6395754.

Protein sequences, listed by entry. Tags and fused reporters are not part of them. Lines headed by an entry give the natural chain unless they say otherwise; changes in a name come on top. Chains listed by the source or under a name are the forms on record and can include a tag or linker.
UniProt P07737: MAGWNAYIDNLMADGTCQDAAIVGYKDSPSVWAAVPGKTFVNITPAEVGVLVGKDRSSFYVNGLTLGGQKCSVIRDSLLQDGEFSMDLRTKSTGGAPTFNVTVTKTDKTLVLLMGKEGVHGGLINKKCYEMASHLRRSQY
UniProt O60610: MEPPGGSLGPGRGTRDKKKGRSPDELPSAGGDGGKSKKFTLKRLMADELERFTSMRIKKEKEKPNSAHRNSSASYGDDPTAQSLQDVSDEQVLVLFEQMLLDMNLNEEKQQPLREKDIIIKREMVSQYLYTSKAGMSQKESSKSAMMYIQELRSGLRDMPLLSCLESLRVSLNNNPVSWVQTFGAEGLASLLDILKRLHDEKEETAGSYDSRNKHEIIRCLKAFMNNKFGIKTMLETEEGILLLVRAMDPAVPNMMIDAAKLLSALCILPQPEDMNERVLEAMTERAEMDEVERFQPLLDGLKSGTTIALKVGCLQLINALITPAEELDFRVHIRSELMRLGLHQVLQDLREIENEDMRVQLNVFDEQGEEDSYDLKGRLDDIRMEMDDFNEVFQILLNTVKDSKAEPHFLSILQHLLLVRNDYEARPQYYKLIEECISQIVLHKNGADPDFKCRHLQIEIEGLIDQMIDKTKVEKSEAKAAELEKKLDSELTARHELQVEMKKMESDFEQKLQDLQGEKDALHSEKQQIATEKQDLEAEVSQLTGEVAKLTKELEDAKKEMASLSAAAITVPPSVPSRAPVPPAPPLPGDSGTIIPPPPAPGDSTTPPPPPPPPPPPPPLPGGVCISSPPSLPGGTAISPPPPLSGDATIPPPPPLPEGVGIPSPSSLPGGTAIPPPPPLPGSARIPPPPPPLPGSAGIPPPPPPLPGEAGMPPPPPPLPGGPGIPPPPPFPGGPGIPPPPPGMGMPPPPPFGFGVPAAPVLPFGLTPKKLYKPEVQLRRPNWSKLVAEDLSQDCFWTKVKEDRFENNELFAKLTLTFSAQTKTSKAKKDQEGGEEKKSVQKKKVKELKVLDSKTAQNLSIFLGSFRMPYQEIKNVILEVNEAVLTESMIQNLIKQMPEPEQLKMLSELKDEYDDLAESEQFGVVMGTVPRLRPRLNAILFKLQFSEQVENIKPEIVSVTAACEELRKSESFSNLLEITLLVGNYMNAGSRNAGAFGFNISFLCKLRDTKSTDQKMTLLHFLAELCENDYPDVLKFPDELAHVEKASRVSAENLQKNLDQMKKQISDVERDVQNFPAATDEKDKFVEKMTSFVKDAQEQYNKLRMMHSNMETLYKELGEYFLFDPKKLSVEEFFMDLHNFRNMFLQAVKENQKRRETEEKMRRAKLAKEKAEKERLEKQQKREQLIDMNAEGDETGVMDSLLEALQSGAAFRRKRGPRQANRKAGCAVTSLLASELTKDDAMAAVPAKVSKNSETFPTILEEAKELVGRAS
3×FLAG-DIAPH1-3D (629D/640D/665D) (O60610, form named): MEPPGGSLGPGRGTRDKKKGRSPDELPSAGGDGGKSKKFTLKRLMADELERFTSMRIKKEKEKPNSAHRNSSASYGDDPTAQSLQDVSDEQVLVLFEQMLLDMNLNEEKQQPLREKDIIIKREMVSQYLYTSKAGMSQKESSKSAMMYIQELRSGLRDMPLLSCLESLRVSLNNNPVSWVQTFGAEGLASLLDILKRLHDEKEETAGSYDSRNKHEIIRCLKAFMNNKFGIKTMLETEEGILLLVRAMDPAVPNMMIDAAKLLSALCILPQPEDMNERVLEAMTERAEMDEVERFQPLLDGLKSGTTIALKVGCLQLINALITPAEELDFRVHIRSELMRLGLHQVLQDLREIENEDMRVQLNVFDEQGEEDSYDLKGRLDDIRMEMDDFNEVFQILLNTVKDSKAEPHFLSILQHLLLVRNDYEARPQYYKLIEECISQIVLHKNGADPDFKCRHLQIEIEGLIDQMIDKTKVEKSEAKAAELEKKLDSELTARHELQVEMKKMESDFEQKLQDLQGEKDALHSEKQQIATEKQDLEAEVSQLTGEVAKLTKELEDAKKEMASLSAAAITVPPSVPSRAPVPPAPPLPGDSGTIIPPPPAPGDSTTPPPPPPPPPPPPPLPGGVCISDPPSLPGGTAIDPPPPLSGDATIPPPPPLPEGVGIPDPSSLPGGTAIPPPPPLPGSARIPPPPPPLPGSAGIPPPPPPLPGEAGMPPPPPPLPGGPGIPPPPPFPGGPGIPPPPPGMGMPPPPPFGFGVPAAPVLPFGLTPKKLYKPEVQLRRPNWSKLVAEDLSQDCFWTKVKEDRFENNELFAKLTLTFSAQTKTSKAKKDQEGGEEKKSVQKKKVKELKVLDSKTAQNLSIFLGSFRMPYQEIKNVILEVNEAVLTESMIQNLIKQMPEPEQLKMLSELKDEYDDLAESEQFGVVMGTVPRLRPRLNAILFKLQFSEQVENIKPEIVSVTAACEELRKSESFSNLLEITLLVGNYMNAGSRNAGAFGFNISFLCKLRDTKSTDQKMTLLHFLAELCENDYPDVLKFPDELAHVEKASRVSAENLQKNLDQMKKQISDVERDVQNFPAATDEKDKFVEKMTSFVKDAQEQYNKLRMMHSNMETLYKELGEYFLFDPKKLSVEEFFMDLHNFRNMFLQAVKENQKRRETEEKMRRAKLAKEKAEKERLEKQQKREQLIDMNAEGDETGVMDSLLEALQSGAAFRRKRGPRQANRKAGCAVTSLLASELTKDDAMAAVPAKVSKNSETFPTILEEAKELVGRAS
3×FLAG-DIAPH1-4D (607D/629D/640D/665D) (O60610, form named): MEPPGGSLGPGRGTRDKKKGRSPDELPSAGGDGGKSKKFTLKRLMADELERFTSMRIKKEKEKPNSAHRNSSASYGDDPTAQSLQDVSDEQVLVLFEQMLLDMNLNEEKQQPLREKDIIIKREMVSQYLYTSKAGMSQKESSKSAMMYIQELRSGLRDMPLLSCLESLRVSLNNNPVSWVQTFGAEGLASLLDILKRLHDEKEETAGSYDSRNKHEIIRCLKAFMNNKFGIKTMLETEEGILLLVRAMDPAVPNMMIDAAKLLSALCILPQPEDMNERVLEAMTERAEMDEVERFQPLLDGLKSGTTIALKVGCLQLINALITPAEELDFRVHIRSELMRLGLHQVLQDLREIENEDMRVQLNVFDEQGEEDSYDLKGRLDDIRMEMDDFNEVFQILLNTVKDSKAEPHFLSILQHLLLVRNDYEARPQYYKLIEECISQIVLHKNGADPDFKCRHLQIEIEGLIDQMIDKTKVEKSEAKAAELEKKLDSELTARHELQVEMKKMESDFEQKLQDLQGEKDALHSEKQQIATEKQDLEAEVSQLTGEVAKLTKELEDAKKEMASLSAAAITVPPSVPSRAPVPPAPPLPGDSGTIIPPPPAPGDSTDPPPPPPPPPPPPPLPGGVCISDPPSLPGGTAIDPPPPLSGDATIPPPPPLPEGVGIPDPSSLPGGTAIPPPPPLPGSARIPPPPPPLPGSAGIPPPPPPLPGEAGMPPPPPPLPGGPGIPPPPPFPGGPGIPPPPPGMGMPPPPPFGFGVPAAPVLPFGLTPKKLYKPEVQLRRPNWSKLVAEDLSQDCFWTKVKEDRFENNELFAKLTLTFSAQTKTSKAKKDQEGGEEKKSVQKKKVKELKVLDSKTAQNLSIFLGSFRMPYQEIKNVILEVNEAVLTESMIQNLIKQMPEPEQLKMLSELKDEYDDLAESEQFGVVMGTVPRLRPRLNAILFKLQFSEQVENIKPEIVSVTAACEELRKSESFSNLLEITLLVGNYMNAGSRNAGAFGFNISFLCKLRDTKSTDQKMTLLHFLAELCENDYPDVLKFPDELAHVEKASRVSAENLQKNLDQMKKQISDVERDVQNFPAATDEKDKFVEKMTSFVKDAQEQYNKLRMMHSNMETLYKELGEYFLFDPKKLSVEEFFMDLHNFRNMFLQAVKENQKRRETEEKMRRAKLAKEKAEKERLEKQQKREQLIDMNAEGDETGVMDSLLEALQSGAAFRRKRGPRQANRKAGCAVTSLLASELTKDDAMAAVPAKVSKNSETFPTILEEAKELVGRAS

Results are given in words; binding and its absence hold for the method and conditions named. Binding seen in cells or lysates may run through a third protein. Some results given as binding are weak or reduced against the parent protein; the word gives no strength.

One test has as its target GST-profilin1 (PFN1) (UniProt P07737). As to the kind of experiment: pull-down; 5 μg of bead-associated GST-PFN1 incubated with 1 mg of lysate proteins (TBSN buffer) for 1.5 h, washed with TBSN buffer, immunoblot; lysates of HeLa cells treated with nocodazole for 18 h and collected by mitotic shake-off; only the target purified. On the technique in general: Immunoblotting shows a protein as a band on a membrane.
For the substance “3×FLAG-DIAPH1-S629A (from UniProt O60610 1-1272)”, the binding result was “binds weakly”.

Regarding “3×FLAG-DIAPH1-S665A (from UniProt O60610 1-1272)”, the binding entry was “binds weakly”.

For another test the target is unchanged. As to the kind of experiment: pull-down; 5 μg of bead-associated GST-PFN1 incubated with 1 mg of HeLa cell lysate proteins (TBSN buffer) for 1.5 h, washed with TBSN buffer, immunoblot; lysates of cells without nocodazole (for actin, 3A and 4A: with and without nocodazole); only the target purified.
With “3×FLAG-DIAPH1-3A (S629A/S640A/S665A) (from UniProt O60610 1-1272)”, the binding result was “binds”.

For “3×FLAG-DIAPH1-4A (T607A/S629A/S640A/S665A) (from UniProt O60610 1-1272)”, the binding entry is on record as “binds”.

Regarding “3×FLAG-DIAPH1-S629D (from UniProt O60610 1-1272)”, the binding result is on record as “binds”.

With “3×FLAG-DIAPH1-S640D (from UniProt O60610 1-1272)”, the binding result is reported as “binds”.

“3×FLAG-DIAPH1-S665D (from UniProt O60610 1-1272)”: the binding entry is given as “binds”.

As to “3×FLAG-DIAPH1-T607D (from UniProt O60610 1-1272)”, the binding entry is on record as “binds”.

The target is the same in another test. Briefly: condition: 5 μg of bead-associated GST-PFN1 with 1 mg of cell lysate proteins; pull-down; 5 μg of bead-associated GST-PFN1 incubated with 1 mg of HeLa cell lysate proteins (TBSN buffer) for 1.5 h, washed with TBSN buffer, immunoblot; lysates of cells without nocodazole (for actin, 3A and 4A: with and without nocodazole); only the target purified.
On to “3×FLAG-DIAPH1-3D (629D/640D/665D) (from UniProt O60610 1-1272)”, for which the binding result is reported as “no binding”.

With “3×FLAG-DIAPH1-4D (607D/629D/640D/665D) (from UniProt O60610 1-1272)”, the binding entry is “no binding”.
